The RNAGym collection of RNA variant scans (doi:10.1093/nar/gkz1192)
Read counts are not given, so values of variants with three or more changes are uncertain.

B1: CPEB3 Ribozyme (parent)
chain: UAACAGGGGGCCACAGCAGAAGCGUUCACGUCGCAGCCCCUGUCAGAUUCUGGUGAAUCUGCGAAUUCUGCUGUAUAUCUC

Variants of: B1
Assay: self-cleavage, relative activity (ratio to wild type); higher = more cleavage; in vitro, sequencing
Outline: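 After error-prone PCR and barcoding, CPEB3 ribozyme mutant libraries were transcribed with T7 RNA polymerase at 37°C for 5 hours, then given 15 min with DNase I before an EDTA stop, and they cleaved during both steps. Reverse transcription with template switching preceded Illumina sequencing. Relative activity divides a variant's cleaved/total read fraction by the unmutated ribozyme's. At least 5 reads were required per variant, and three batches were averaged.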

| Variant | self-cleavage |
| --- | --- |
| UAACAGGGGGCUACAGCAGAAGAGUUCACGUCGCAGCCCCUGUCAGAUUCUGGGGAAUCUGCGAAUUCUGCUGUAUUCCUC [C12U C23A U54G A77U U78C] | 0.15 |
| UAACAGGGGGCUACAGCAGAAGGGUUCACGUCCCAGCCCCUGUCAGAUUCUGGUGAAUCUGAGAAUUCUGCUGUAUAUCUC [C12U C23G G33C C62A] | 0.21 |
| UAACAGGGGGCUACAGCAGAAGCGUUUACCUCGCAGCCCCUGUCAGAUUCUGGUGAAUCUGCGAAUUCUGCUGUAUAUCUC [C12U C27U G30C] | 0.22 |
| UAACAGGGGGCUACAGCAGAAGCGUUCACGUUGCUGCCCCUGUCAGAUUCUGGUGAACCUGCGAACUCCGCUGUAUAUCUC [C12U C32U A35U U58C U66C U69C] | 0.05 |
| UAACAGGGGGCUACAGCAGAAGCGUUCACGUUGCAGCCCCUGUCAGAUCCCGGUGAAUCUGCGAAUUCUACUGUGUAUCUC [C12U C32U U49C U51C G70A A75G] | 0.06 |
| UAACAGGGGGCUACAGCAGAAGCGUUCACGUCGCAGCCACUGUCAGAUUCUGGUGAAUCUGCGAAUUCUACUGUAUAUCUC [C12U C39A G70A] | 0.11 |
| UAACAGGGGGCUACAGCAGAAGCGUUCACGUCGCAGCCUCUGUCAGAUUCAGGUGAAUCUGCGAAUUCUGCUAUAUAUCUC [C12U C39U U51A G73A] | 1.33 |
| UAACAGGGGGCUACAGCAGAAGCGUUCACGUCGCAGCCCGUGCCAGAUUCUGGUGAAUCUGCGAAUUCUGCUGUAUAUCAC [C12U C40G U43C U80A] | 0.2 |
| UAACAGGGGGCUACAGCAGAAGCGUUCACGUCGCAGCCCUUGUCAGACUCUGGUGAAUCAGCGAAUUCUGCUGUAUAUCUC [C12U C40U U48C U60A] | 0.23 |
| UAACAGGGGGCUACAGCAGAAGCGUUCACGUCGCAGCCCCUGUCAGAUUCUGGUGAAUGCGCGAAUUCUGCUGUGUAUCUC [C12U C59G U60C A75G] | 0.33 |
| UAACAGGGGGCUACAGCAGAAGCGUUCACGUCGCAGCCCCUGUCAGAUUCUGGUGAAUCUGUGAAUUCCGCUGUAUAUCUC [C12U C62U U69C] | 0.39 |
| UAACAGGGGGCUACAACAGAAGCGUUCACGUCGCAGCCCCUGUCAGAUUCUGGUGAAUCAGCGAACUCUGCUGUAUAUCUC [C12U G16A U60A U66C] | 0.12 |
| UAACAGGGGGCUACAUCAGAAGCGUUCACGUCGCAGCCCCUGUCAGAUUCUGGUGAAUCCGCGAAUUCAGCUGUAUAUCUC [C12U G16U U60C U69A] | 0.13 |
| UAACAGGGGGCUACAUCAGAAGCGUUCACGUCGCAGCCCCUGUCAGAUUCUGGUGAAUCUGCGAAUUCUGCUGUAAAUCUC [C12U G16U U76A] | 1 |
| UAACAGGGGGCUACAGCACAAGCGUUCACGUCACAGCCCCUAAUAGAUUCUGGUGUAUCUGCGAAUUCUGCUGUAUAUCUC [C12U G19C G33A G42A U43A C44U A56U] | 0.05 |
| UAACAGGGGGCUACAGCAGAAGCACUCGCGUCGCAGCCCCUGUCAGAUCCUGGUGAAUCUGCGAAUUCUGCUGUAAGUCUC [C12U G24A U25C A28G U49C U76A A77G] | 0.05 |
| UAACAGGGGGCUACAGCAGAAGCUUUCGCGUCACAGCCCCUGUCAGAUUCUGGUGAAUCUGCGAAUUCUGCUGUAUAUCUC [C12U G24U A28G G33A] | 0.05 |

| Variant | self-cleavage |
| --- | --- |
| UAACAGGGGGCUACAGCAGAAGCGUUCACAUCGCAGCCCCUGUCGGAUUCUGGUGAAUCUGCGAAUUCUGCUGUAUUUCUC [C12U G30A A45G A77U] | 0.07 |
| UAACAGGGGGCUACAGCAGAAGCGUUCACAUCGCAGCCCCUGUCAGGUUCUGGUGAAUCUGCGAAUUCUGCUGUAUUUCUC [C12U G30A A47G A77U] | 0.19 |
| UAACAGGGGGCUACAGCAGAAGCGUUCACACCGCGGCCCCUGUCUGAUUCUGGUGAAUCUGCGAAUUCUGCUGUAUAUCUC [C12U G30A U31C A35G A45U] | 0.1 |
| UAACAGGGGGCUACAGCAGAAGCGUUCACACCGCUGCCCCUGUCAGAUUCUGGUGAAUCUGCGAAUUCCGCUGUAUAUCUC [C12U G30A U31C A35U U69C] | 0.1 |
| UAACAGGGGGCUACAGCAGAAGCGUUCACGUCGCAGCCCCUGUCAAAUUCUGGUGAAUCUGCGAAUUCUGCUGUAUACCUC [C12U G46A U78C] | 0.27 |
| UAACAGGGGGCUACAGCAGAAGCGUUCACGUCGCAGCCCCUGUCAGAUUCUAGUGUAUCCGCGAAUUCUGCUGUAUAUCUC [C12U G52A A56U U60C] | 0.73 |
| UAACAGGGGGCUACAGCAGAAGCGAUCACGUCGCAGCCCCUGUCAGAUUCUGAUGAAUCUGCGAAUACUGCUGUAUAUCUC [C12U U25A G53A U67A] | 0.1 |
| UAACAGGGGGCUACAGCAGAAGCGCUCCCGUCGCAGCCCCCGACAGAUUCUGGAGAAUCUGCGAAUUCUGCUGUAUAUCUC [C12U U25C A28C U41C U43A U54A] | 0.11 |
| UAACAGGGGGCUACAGCAGAAGCGCUCACGUCGCGGCCCCGGUCGGAUUCUGGAGAAUCUGCGAAUUCUGCUGUAUAUCUC [C12U U25C A35G U41G A45G U54A] | 0.1 |
| UAACAGGGGGCUACAGCAGAAGCGCUCACGUCGCAGCCCCUGUCAGAUUUUGGUGAAUCUGCGAAUUCUGCUGUAUAUCUC [C12U U25C C50U] | 0.29 |
| UAACAGGGGGCUACAGCAGAAGCGCCCACGUCGCAGCCCUUGUCAGUUCCUGGUGGAUCUGCGAAUUCUGCUGUAUAUCUC [C12U U25C U26C C40U A47U U49C A56G] | 0.05 |
| UAACAGGGGGCUACAGCAGAAGCGCUCACGACGCAGCCCCUGUCAGAUUCAGGUGAAUCUGCGAACUCUGCUGUAUAUCUC [C12U U25C U31A U51A U66C] | 0.22 |
| UAACAGGGGGCUACAGCAGAAGCGCUCACGACGCAGCCCCUGUCAGAUUCUGGGGAAUCUGCGAAUUCUGCUGUAUAUCUC [C12U U25C U31A U54G] | 0.07 |
| UAACAGGGGGCUACAGCAGAAGCGCUCACGUCGCAGCCCCAGUCAGAUUCAGGUGAAACUGCGAAUUCCGCCGUAUAUCUC [C12U U25C U41A U51A U58A U69C U72C] | 0.06 |
| UAACAGGGGGCUACAGCAGAAGCGCUCACGUCGCAGCCCCUGUCAGACUCUGGCGAAUCCGCGAAUUCUGCCGUAUAUCUC [C12U U25C U48C U54C U60C U72C] | 0.06 |
| UAACAGGGGGCUACAGCAGAAGCGCUCACGUCGCAGCCCCUGUCAGACUCUGGUGAAUCUGCGAAUUCCGCCGUGUAUCUC [C12U U25C U48C U69C U72C A75G] | 0.04 |
| UAACAGGGGGCUACAGCAGAAGCGCUCACGUCGCAGCCCCUGUCAGAUUCUGGUGAAUCUGCGAAUUCAGCUGUAUAUCUC [C12U U25C U69A] | 0.14 |
